Measurements published in PubChem BioAssay AID588855 (National Center for Advancing Translational Sciences (NCATS), 2011).
Among all 410,000 compounds or so, about 5,000 (1.2%) were called active. Inconclusive results, whose numbers are uncertain, are shown with a selection of clear calls. Calls follow the shape of the dose curve; as a rule, active = well fitted inhibition curve with a large enough effect; inconclusive = small, poorly fitted or top-dose-only effect; inactive = no such curve, though single readings can be large or run the other way. Potencies of inconclusive entries are doubtful fits and often do not repeat.
Potency is read from the fitted curve at half-maximal effect; tags tell the direction and shape of the fitted curve.

Test: qHTS for Inhibitors of TGF-b; also: nearly all actives have a fitted effect of over 65% in size
Details: HepG2 CAGA-GFP TGF-b/SMAD3 reporter, GFP fluorescence, 18 h, TGF-beta stimulated, 500 pg/mL final; series mostly up to 46.1 µM
Summary of the method: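 First, reporter cells (HEPG2 CAGA-GFP) rested 2 h at 37 degrees C. Next, compounds were pinned in and TGF-beta added to 500 pg/mL final. After 18 h, GFP was imaged per cell and summed per well.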
With Cc1nc2ccc(NC(=O)N3CCCCC3)cc2s1 the Potency was inconclusive: 0.112 µM [inhibitor, full curve, poor fit].
With Cc1ccc(NC(=O)CSc2cccc3cccnc23)c(C)c1 the Potency was active: 14.1 µM.
In the case of COc1ccc(OCc2nc(C#N)c(NCc3ccccc3Cl)o2)cc1, the Potency is reported as inconclusive: 35.5 µM [inhibitor, single point].
In the case of Cc1cc(C)c(-c2csc(Cc3nc(-c4cc5ccccc5oc4=O)cs3)n2)cc1C, the Potency is reported as “inactive”.
In the case of COc1cccc(N2CCN(C(=O)c3c4c(nc5ccccc35)C(=O)N(C3CCCCC3)C4)CC2)c1, the Potency is reported as “inactive”.
With Cc1cc(SCC(=O)Nc2nsc(-c3ccc(C(C)(C)C)cc3)n2)nc2ccccc12 the Potency was inconclusive: 25.1 µM [inhibitor, single point].
With CC(=O)C1=CCC(c2ccc(Cl)c(Cl)c2)N(S(=O)(=O)c2ccc(C)cc2)C1 (stereo not given) the Potency was inconclusive: 17.8 µM [inhibitor, single point].
For CC(=NNC(=S)Nc1cccc(C)c1)c1ccccn1, the Potency was inconclusive: 0.398 µM [inhibitor, full curve, poor fit].
For C/C(=N/Nc1cc(-c2ccccc2)nc(-c2ccccc2)n1)c1ccc(O)cc1, the Potency was inconclusive: 22.4 µM [inhibitor, single point].
In the case of O=C(c1ccc([N+](=O)[O-])cc1)N(Cc1ccccc1)Cc1ccccc1, the Potency is reported as “inactive”.
In the case of O=C1C=CC(=O)N1, the Potency is reported as inconclusive: 25.1 µM [inhibitor, single point].
For Cc1occc1C(=O)NC1CCCN(Cc2ccc(CC(C)C)cc2)C1 (stereo not given), the Potency was inconclusive: 11.2 µM [inhibitor, partial curve].
For O=C(Nc1ccc2c(c1)CCC2)c1cccs1, the Potency was inconclusive: 25.1 µM [inhibitor, single point].
With COc1cccc(C2=CC(c3ccccc3O)NC(C)(C)N2)c1 (stereo not given) the Potency was “inactive”.
With O=[N+]([O-])c1ccccc1N/N=C/c1cccc(O)c1O the Potency was inconclusive: 10 µM [inhibitor, single point].
For Cc1cccc(C(=O)O/N=C2\CCCc3ccccc32)c1, the Potency was inconclusive: 35.5 µM [inhibitor, single point].
In the case of Cc1cc(C)c(-c2csc(NC(=O)CCCc3nc4ccccc4c(=O)[nH]3)n2)c(C)c1, the Potency is reported as inconclusive: 15.8 µM [inhibitor, partial curve, poor fit].
With COc1ccc(-c2nc3sc(CCNS(=O)(=O)c4c(C)cc(C)cc4C)c(C)n3n2)cc1 the Potency was inconclusive: 22.4 µM [inhibitor, single point].
For CCC(CC)NCc1ccc2c(c1)c1ccccc1n2CC, the Potency was inconclusive: 14.1 µM [inhibitor, partial curve, poor fit].
For N=C1SCC(=O)N1c1ncc(Cc2ccccc2Cl)s1, the Potency was inconclusive: 25.1 µM [inhibitor, single point].
For O=C(/C=C/c1cn(-c2ccccc2)nc1-c1ccccc1)Nc1ccc(C(=O)O)cc1, the Potency was inconclusive: 15.8 µM [inhibitor, partial curve].
With O=C(Nc1ncccn1)c1cc(-c2ccc(F)cc2)nc2ccccc12 the Potency was “inactive”.
With OC[C@@H]1[C@@H](c2ccc(F)cc2)C(c2ccccc2)=NN1c1ccccc1 the Potency was inconclusive: 28.2 µM [inhibitor, single point].
For CCc1cccc(NC(=O)C(Cc2ccccc2)NS(=O)(=O)c2ccc3c(c2)c(=O)n(C)c(=O)n3C)c1 (stereo not given), the Potency was active: 4.47 µM.
For COc1ccc(CN(C)CC(O)COc2ccc(C(=O)c3ccccc3)cc2)c(OC)c1OC (stereo not given), the Potency was inconclusive: 31.6 µM [inhibitor, single point].
In the case of CCCc1cc(=O)[nH]c(SCC(=O)N2N=C(c3ccc(Cl)cc3)CC2c2ccco2)n1 (stereo not given), the Potency is reported as inconclusive: 15.8 µM [inhibitor, single point].
In the case of CN(Cc1c(F)cccc1Cl)S(=O)(=O)c1cccs1, the Potency is reported as inconclusive: 0.112 µM [inhibitor, full curve, poor fit].
For O=c1oc2ccccc2cc1-c1csc(Cc2nc(-c3ccc(Cl)cc3)cs2)n1, the Potency was inconclusive: 0.0891 µM [inhibitor, full curve, poor fit].
In the case of Cc1ccc(OCC(=O)NNC(=S)NC(=O)C(C)(C)C)c(Br)c1, the Potency is reported as inconclusive: 11.2 µM [inhibitor, partial curve, poor fit].
With CC1(C)CC(=O)C(C=NCc2ccccn2)=C(O)C1 the Potency was “inactive”.
In the case of COc1ccc(-c2nnc(C3CCN(S(=O)(=O)c4ccccc4)CC3)o2)cc1, the Potency is reported as inconclusive: 35.5 µM [inhibitor, single point].
With COc1ccc(C(=O)OCC(=O)NCCCc2ccccc2)c(OC)c1 the Potency was inconclusive: 35.5 µM [inhibitor, single point].
With CCOc1ccc(-c2noc([C@@H]3O[C@H](CO)[C@@H](O)[C@H]3O)n2)cc1 the Potency was “inactive”.
For O=C(NCc1ccc(Cl)cc1)c1ccc2oc(=O)n(Cc3ccccc3)c2c1, the Potency was inconclusive: 35.5 µM [inhibitor, single point].
In the case of Cc1nn(-c2ccccc2)c(C)c1/C=N/NC(=O)CSc1nc2ccccc2c(=O)n1-c1ccc(Br)cc1, the Potency is reported as inconclusive: 35.5 µM [inhibitor, single point].
For COc1cc(C)ccc1S(=O)(=O)NC(=O)C1(C)CCN1C(=O)c1ccc(C2CCCCC2)cc1 (stereo not given), the Potency was “inactive”.
With COCCNc1ncnc2c1cnn2Cc1ccc(Cl)cc1 the Potency was “inactive”.
In the case of O=C(c1ccc([N+](=O)[O-])s1)N1CCN(c2ccccc2)CC1, the Potency is reported as inconclusive: 20 µM [inhibitor, single point].
For CCOC(=O)c1cc(S(=O)(=O)N2CCN(c3cccc(OC)c3)CC2)[nH]n1, the Potency was inconclusive: 5.62 µM [inhibitor, partial curve].
For CC(C)N(c1ccccc1)c1ccc(NC(=O)C2CCCO2)cc1 (stereo not given), the Potency was inconclusive: 0.316 µM [inhibitor, full curve, poor fit].
With Cc1ccc(S(=O)(=O)N2CCN(C(=S)NCc3ccc4c(c3)OCO4)CC2)cc1 the Potency was inconclusive: 10 µM [inhibitor, partial curve, poor fit].
With O=C(NC(=S)Nc1cccnc1)c1cccc(Cl)c1 the Potency was inconclusive: 35.5 µM [inhibitor, partial curve, poor fit].
With O=c1[nH]c2cccc(Cl)c2n(CCNc2ncc(C(F)(F)F)cc2Cl)c1=O the Potency was inconclusive: 35.5 µM [inhibitor, single point].
With CCOc1ccc(C2=C(C(=O)CC)Sc3nncn3N2C(=O)CC)cc1 the Potency was inconclusive: 20 µM [inhibitor, single point].
In the case of CCOC(=O)c1ccc(NCn2c(=O)oc3ccccc32)cc1, the Potency is reported as inconclusive: 3.16 µM [inhibitor, single point].
For CCCCC(O)(CCCC)C(=O)NNc1ccccc1, the Potency was inconclusive: 6.31 µM [inhibitor, single point].
In the case of CN(C)C(=O)NC(Nc1ccc(Cl)cc1Cl)C(Cl)(Cl)Cl (stereo not given), the Potency is reported as inconclusive: 35.5 µM [inhibitor, single point].
With C#CCSc1n[nH]c(-c2ccco2)n1 the Potency was inconclusive: 35.5 µM [inhibitor, single point].
With CCCC[C@@H]1CNC(=O)C(=O)N1CCCc1cc(OC)c(OC)c(OC)c1 the Potency was inconclusive: 5.62 µM [inhibitor, single point].
In the case of COc1ccc(CCNC(=O)CSc2cn(CCNC(=O)c3ccccc3F)c3ccccc23)cc1OC, the Potency is reported as inconclusive: 35.5 µM [inhibitor, single point].
For CCN1CCN(S(=O)(=O)c2ccc(Cl)c(C(=O)N(C)CCOc3ccc(Cl)cc3)c2)CC1, the Potency was active: 14.1 µM.
In the case of CCSc1nc2c(c(=O)n(C)c(=O)n2C)n1Cc1ccc(Cl)cc1, the Potency is reported as inconclusive: 17.8 µM [inhibitor, single point].
In the case of COc1ccc(CCNS(=O)(=O)c2ccc3c(c2)CC(C)N3C(=O)C2CC2)cc1OC (stereo not given), the Potency is reported as “inactive”.
For CCOc1ccc(NS(=O)(=O)c2cc(NC(=O)CCNC(=O)c3ccco3)ccc2OC)cc1, the Potency was inconclusive: 22.4 µM [inhibitor, single point].
With Nc1cccc(N2C(=O)c3cccc4c(N)ccc(c34)C2=O)c1 the Potency was inconclusive: 25.1 µM [inhibitor, single point].
With Cc1onc(-c2ccccc2)c1C(=O)OCC(=O)N(CC(C)C)c1c(N)n(Cc2ccccc2)c(=O)[nH]c1=O the Potency was inconclusive: 20 µM [inhibitor, partial curve, poor fit].
With Cc1csc(NC(=O)C2CC(=O)N(Cc3ccco3)C2)n1 (stereo not given) the Potency was “inactive”.
In the case of COc1cc(O)c(C(CCN2CCCC2)c2ccc(N(C)C)cc2)c(OC)c1 (stereo not given), the Potency is reported as inconclusive: 6.31 µM [inhibitor, single point].
For O=C1N[C@@H](Cc2ccccc2)COC(=O)[C@@H](Cc2ccc(F)cc2)C/C=C\C[C@@H]1CC(=O)N(CCO)Cc1ccccc1, the Potency was inconclusive: 22.4 µM [inhibitor, single point].
With O=C(CSC(=S)N1CCCC1)c1ccccc1 the Potency was “inactive”.
In the case of O=C(NC(=S)Nc1cccc(Cl)c1N1CCCCC1)c1cccs1, the Potency is reported as inconclusive: 35.5 µM [inhibitor, single point].
In the case of COc1ccc(NC(=O)CSc2nc(-c3ccc(OC)c(OC)c3)[nH]c2-c2ccc(C)cc2)cc1, the Potency is reported as inconclusive: 3.55 µM [inhibitor, full curve].
For COc1ccc(OC)c(NC(=O)c2nc(S(=O)(=O)Cc3ccccc3F)ncc2Cl)c1, the Potency was inconclusive: 4.47 µM [inhibitor, single point].
In the case of CCOc1ccc(CCNC(=O)CCCc2nnc3n(C)c(=O)c4sccc4n23)cc1OCC, the Potency is reported as “inactive”.
With Cc1c(C(=O)OC2CCC(C)CC2)[nH]c2c1C(=O)CC(c1ccccc1Cl)C2 (stereo not given) the Potency was “inactive”.
